Data published in the supplement of paper PMC10037445.
In all, about 2,900 compounds were measured (“NF-kB SEAP reporter activity, fold change vs agonist alone”: median about 0.99, highest 2% from about 2.6 on). The list shows a part of the results.

Columns and labels:
[1] = test system: RAW-Dual; experiment: NF-kB SEAP reporter activity, fold change vs agonist alone; higher = enhanced NF-kB activity
In short: (§1)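 Supernatant from RAW-Dual macrophages was read after 20 hours for IRF by QuantiLuc luminescence and for NF-κB by QuantiBlue absorbance at 620 nm. The cells (50,000 cells/well in DMEM, 384-well plates, 37 °C, 5% CO2) had received 50 nL of library stock by pin tool and, 1 h later, a PRR agonist. Reporter activity is expressed relative to agonist-alone wells as fold change, and wells were flagged cytotoxic if IncuCyte confluency was under 70% of agonist controls in both mask sets.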

[2] = test system: RAW-Dual; experiment: NF-kB SEAP reporter activity, fold change vs agonist alone; cytotoxicity flag (confluency mask): not cytotoxic; higher = enhanced NF-kB activity
In short: as §1

[3] = test system: RAW-Dual; experiment: NF-kB SEAP reporter activity, fold change vs agonist alone; cytotoxicity flag (confluency mask): cytotoxic (confluency <70% of control); higher = enhanced NF-kB activity
In short: as §1

[4] = agonist: ODN 1826 (TLR9) 0.5 ug/mL
[5] = agonist: Pam2CSK4 (TLR2/6) 0.1 ug/mL
[6] = agonist: Pam3CSK4 (TLR2/1) 0.1 ug/mL
[7] = library stock concentration (final ~1000-fold dilution): 10 mM, cytotoxicity flag (confluency mask): not cytotoxic, agonist: MPLA (TLR4) […]
[8] = library stock concentration (final ~1000-fold dilution): 10 mM, cytotoxicity flag (confluency mask): not cytotoxic, agonist: Imiquimod (TLR7) […]
[9] = library stock concentration (final ~1000-fold dilution): 10 mM, cytotoxicity flag (confluency mask): cytotoxic (confluency <70% of control), agonist: Imiquimod (TLR7) […]
[10] = library stock concentration (final ~1000-fold dilution): 10 mM, cytotoxicity flag (confluency mask): cytotoxic (confluency <70% of control), agonist: MPLA (TLR4) […]

SMILES: Cc1cc(CN2CCN(c3c(Br)cnc4[nH]c(-c5ccc(N6CCN(C)CC6)cc5)nc34)CC2)no1
- NF-kB SEAP reporter activity ([1]; library stock concentration (final ~1000-fold dilution): 2 mM, cytotoxicity flag (confluency mask): not cytotoxic, agonist: Imiquimod (TLR7) […]): 1.06
- NF-kB SEAP reporter activity ([1]; library stock concentration (final ~1000-fold dilution): 2 mM, cytotoxicity flag (confluency mask): not cytotoxic, agonist: MPLA (TLR4) […]): 1

SMILES: O=c1cc(-c2ccccc2)oc2cc(O)ccc12 (library stock concentration (final ~1000-fold dilution): 10 mM)
- NF-kB SEAP reporter activity ([2]; agonist: LPS (TLR4) 0.1 ug/mL): 1.2
- NF-kB SEAP reporter activity [2, 4]: 1.3
- NF-kB SEAP reporter activity [2, 5]: 1.43
- NF-kB SEAP reporter activity [2, 6]: 0.809

SMILES: O=c1cc(-c2ccccc2)oc2cc(O)ccc12
- NF-kB SEAP reporter activity [1, 7]: 1.23

SMILES: CC(=O)Oc1ccccc1C(=O)O (library stock concentration (final ~1000-fold dilution): 10 mM)
- NF-kB SEAP reporter activity ([2]; agonist: LPS (TLR4) 0.1 ug/mL): 1.02
- NF-kB SEAP reporter activity [2, 4]: 0.998
- NF-kB SEAP reporter activity [2, 5]: 1.06
- NF-kB SEAP reporter activity [2, 6]: 1.11

SMILES: CC(=O)Oc1ccccc1C(=O)O
- NF-kB SEAP reporter activity [1, 8]: 0.97
- NF-kB SEAP reporter activity [1, 7]: 1.03

SMILES: O=C(O)c1ccc(-c2c[nH]c3ncc(-c4ccccc4)cc23)cc1C1CCCC1
- NF-kB SEAP reporter activity [1, 8]: 0.374
- NF-kB SEAP reporter activity [1, 7]: 1.16

SMILES: O=C(O)c1ccc(-c2c[nH]c3ncc(-c4ccccc4)cc23)cc1C1CCCC1 (library stock concentration (final ~1000-fold dilution): 10 mM)
- NF-kB SEAP reporter activity ([2]; agonist: LPS (TLR4) 0.1 ug/mL): 1.15
- NF-kB SEAP reporter activity [2, 4]: 0.388
- NF-kB SEAP reporter activity [2, 5]: 0.646
- NF-kB SEAP reporter activity [2, 6]: 0.497

SMILES: Cc1ncc(CO)c(CO)c1O
- NF-kB SEAP reporter activity [1, 8]: 0.463
- NF-kB SEAP reporter activity [1, 7]: 0.799

SMILES: Cc1ncc(CO)c(CO)c1O (library stock concentration (final ~1000-fold dilution): 10 mM)
- NF-kB SEAP reporter activity ([2]; agonist: LPS (TLR4) 0.1 ug/mL): 1.31
- NF-kB SEAP reporter activity [2, 4]: 0.734
- NF-kB SEAP reporter activity [2, 5]: 0.939
- NF-kB SEAP reporter activity [2, 6]: 1.04

SMILES: OC(c1ccccc1)(c1ccccc1)C12CC[N+](CCOCc3ccccc3)(CC1)CC2
- NF-kB SEAP reporter activity [1, 8]: 1.09
- NF-kB SEAP reporter activity [1, 7]: 0.997

SMILES: OC(c1ccccc1)(c1ccccc1)C12CC[N+](CCOCc3ccccc3)(CC1)CC2 (library stock concentration (final ~1000-fold dilution): 10 mM)
- NF-kB SEAP reporter activity ([2]; agonist: LPS (TLR4) 0.1 ug/mL): 1.15
- NF-kB SEAP reporter activity [2, 4]: 1.01
- NF-kB SEAP reporter activity [2, 5]: 0.809
- NF-kB SEAP reporter activity [2, 6]: 1.05

SMILES: COc1cc2nccc(Oc3ccc(NC(=O)NC4CC4)c(Cl)c3)c2cc1C(N)=O.CS(=O)(=O)O (library stock concentration (final ~1000-fold dilution): 10 mM)
- NF-kB SEAP reporter activity ([2]; agonist: LPS (TLR4) 0.1 ug/mL): 1.19
- NF-kB SEAP reporter activity [2, 4]: 0.54
- NF-kB SEAP reporter activity [2, 5]: 0.605
- NF-kB SEAP reporter activity [2, 6]: 0.353

SMILES: COc1cc2nccc(Oc3ccc(NC(=O)NC4CC4)c(Cl)c3)c2cc1C(N)=O.CS(=O)(=O)O
- NF-kB SEAP reporter activity [1, 7]: 1.07

SMILES: COc1cc2c(cc1-c1c(C)noc1C)ncc1[nH]c(=O)n(C(C)c3ccccn3)c12 (centres undefined) (library stock concentration (final ~1000-fold dilution): 10 mM)
- NF-kB SEAP reporter activity ([3]; agonist: LPS (TLR4) 0.1 ug/mL): 4.87
- NF-kB SEAP reporter activity [3, 4]: 2.55
- NF-kB SEAP reporter activity [3, 5]: 0.529
- NF-kB SEAP reporter activity [3, 6]: 1.93

SMILES: COc1cc2c(cc1-c1c(C)noc1C)ncc1[nH]c(=O)n(C(C)c3ccccn3)c12 (centres undefined)
- NF-kB SEAP reporter activity [1, 9]: 2.61
- NF-kB SEAP reporter activity [1, 10]: 2.46

SMILES: O=c1oc2cc(O)ccc2c2ccc(O)cc12 (library stock concentration (final ~1000-fold dilution): 10 mM)
- NF-kB SEAP reporter activity ([2]; agonist: LPS (TLR4) 0.1 ug/mL): 1.08
- NF-kB SEAP reporter activity [2, 4]: 0.575
- NF-kB SEAP reporter activity [2, 5]: 0.257
- NF-kB SEAP reporter activity [2, 6]: 0.455

SMILES: O=c1oc2cc(O)ccc2c2ccc(O)cc12
- NF-kB SEAP reporter activity [1, 8]: 1.26
- NF-kB SEAP reporter activity [1, 7]: 1.58

SMILES: Cc1cc(Nc2ncc3c(n2)N(C)C(=O)N(c2cc(NC(=O)c4cccc(C(F)(F)F)c4)ccc2C)C3)n(C)n1 (library stock concentration (final ~1000-fold dilution): 10 mM)
- NF-kB SEAP reporter activity ([3]; agonist: LPS (TLR4) 0.1 ug/mL): 0.283
- NF-kB SEAP reporter activity [3, 4]: 0.186
- NF-kB SEAP reporter activity [3, 5]: 0.0623
- NF-kB SEAP reporter activity [3, 6]: 0.124

SMILES: Cc1cc(Nc2ncc3c(n2)N(C)C(=O)N(c2cc(NC(=O)c4cccc(C(F)(F)F)c4)ccc2C)C3)n(C)n1
- NF-kB SEAP reporter activity [1, 9]: 0.128
- NF-kB SEAP reporter activity [1, 10]: 0.265
